Results on 32 molecules are retold here after PubChem BioAssay AID1240 (Sanford-Burnham Center for Chemical Genomics, 2008).

Hit rate of the full screen: of about 50,000 compounds, about 800 (1.6%) showed an effect of 50% or more. The list shows a part of the results.

The target of this assay is Bcl-2-like protein 10 (Homo sapiens) (UniProt Q9HD36). In words: Phenotype converters, Bcl-B/TR3 peptide binding displacement, primary biochemical FP (AID 1240).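 Also: 0% = Bcl-B with tracer peptide and DMSO and 100% = tracer peptide lacking Bcl-B.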 The settings on record: GST-Bcl-B / FITC-TR3 peptide fluorescence polarization; stronger effect = higher value; compound at 3.75 mg/L. On the technique in general: Polarisation of emitted light reports the rotation of a fluorescent probe.
Chain of UniProt Q9HD36 (Q9HD36 whole entry, looked up): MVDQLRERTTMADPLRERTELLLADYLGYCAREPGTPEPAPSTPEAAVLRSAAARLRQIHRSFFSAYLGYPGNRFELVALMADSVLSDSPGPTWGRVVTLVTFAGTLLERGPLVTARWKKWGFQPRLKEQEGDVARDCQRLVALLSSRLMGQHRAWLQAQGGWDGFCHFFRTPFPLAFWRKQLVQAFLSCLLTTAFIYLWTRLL
Turning to `O=C(c1ccccc1Cl)N1CCN(c2nc3ccccc3s2)CC1`, the displacement amounted to 0.4%.
With `COc1ccccc1N=C(C)C1=C(O)CSC1=O`, the displacement stood at 1.4%.
`CCOc1ccc(-c2cnc(N)nc2N)cc1`: the displacement is -3%.
With `CC(C)CC1CC(C)(C(=O)CSc2n[nH]c(-c3ccccc3)n2)OC1=O` (configuration not stated), the displacement came to 0%.
Regarding `Fc1c(F)c(F)c(-c2c(F)c(F)c(N3CCOCC3)c(F)c2F)c(F)c1F`, the displacement was 2.6%.
Turning to `COC(=O)c1ccc(/C=C2/C=C(c3ccc(OC)cc3)OC2=O)cc1`, the displacement is -46.3%.
The same measure for `Cc1ccc(-n2[nH]c(=O)c(/C=C3\C=Nc4ccccc43)c2O)cc1Cl`: 11.5%; for `O=S(=O)(Nc1nc2ccccc2nc1-n1cnc2ccccc21)c1ccccc1`: 29.3%; for `O=C(NN1C(=O)C2C3C=CC(C4CC34)C2C1=O)c1cccc(Br)c1` (configuration not stated): 0.5%.
As for `O=C1CCNc2c(Cl)cc(Cl)cc21`, the displacement is 88.6%.
Consider `O=C(Nc1cccc2nsnc12)c1cccc(OCc2ccccc2)c1`, for which the displacement turned out to be 6%.
Under `O=C1CSC(=O)N1CNc1ccccn1` stands 14.5%.
On to `O=C1c2ccccc2C(=O)N1CCCCN(C(=O)c1cc2ccccc2oc1=O)c1ccc(F)cc1F`, for which the displacement came out at 11.4%.
Consider `Cc1cc(C)c(N2C(=O)c3ccccc3C2=O)c([N+](=O)[O-])c1`, for which the displacement was determined as 5.4%.
Regarding `O=C(CC1SC(=O)NC1=O)Nc1cccc(O)c1` (configuration not stated), the displacement worked out at 8.6%.
Regarding `O=C(O)/C=C/C(=O)Nc1cc([N+](=O)[O-])ccc1F`, the displacement was 8.2%.
As for `C=C(C)c1cccc(C(C)(C)NC(=O)NCCCN(C)C)c1`, the displacement came out at 0%.
The same measure for `O=C(O)c1ccccc1N=Cc1cc(Cl)ccc1O`: 2.7%.
As for `COc1ccc(C(=O)N=Nc2c(O)n(CN3CCCC3)c3ccc(Br)cc23)cc1`, the displacement is -8.9%.
`CCOC(=O)c1ccc(-c2ccccc2)cc1`: the displacement stood at 8.4%.
Consider `Cc1ccc(N2CC(C(=O)Nc3ccccc3Br)CC2=O)cc1` (configuration not stated), for which the displacement turned out to be 11.9%.
On to `CCOC(=O)c1c(-c2ccccc2)csc1-n1c(C)ccc1C`, for which the displacement was 1.7%.
Under `O=C(/C=C/c1cccc(C(F)(F)F)c1)Nc1cccc(Cl)c1` stands 14.9%; under `CCCCOC(=O)c1cccc(NC(=O)c2ccc(OC)cc2)c1`, -3.1%.
For `CSc1nccn1CC(=O)Nc1ccccc1`, the displacement was determined as 9.6%.
On to `COc1ccc(N2C(=O)NC(=O)C(=Cc3ccccc3OCC(=O)O)C2=O)cc1`, for which the displacement was 7.3%.
As to `Cc1cc2nc(-c3ccc(C)c(NC(=O)c4ccc([N+](=O)[O-])cc4)c3)oc2cc1C`, the displacement is -8%.
For the molecule `Cc1ccc(S(=O)(=O)Nc2ccc(S(=O)(=O)NC(=O)C(C)C)cc2)cc1`, the displacement worked out at 13.8%.
In the case of `CC(C)(C)c1nnc(NC(=O)Nc2ccccc2)s1`, the displacement was -11.6%.
The same measure for `CCN=C(NCC)SC1CC(=O)N(c2cccc(OC)c2)C1=O` (configuration not stated): 1.8%; for `Cc1ccc(CNC(=O)C(=O)NC(C)C)cc1`: 4.4%.
For `Cc1ccc(OCC(=O)Nc2ccc(O)cc2)cc1C`, the displacement amounted to 12.9%.
